Assay results reported in the supplement of paper PMC4604168 (melanoma cell lines).
Some of the results follow. Repeats are few or missing, and single values can be far off.

Tests used:
Test in all cases: cell count relative to DMSO control; melanoma cells; higher = more viable cells
Settings in all cases: library dose: standard library concentration; 72 h
G361 = tested on: G361
IPC-298 = tested on: IPC-298
IST-MEL1 = tested on: IST-MEL1
LB2518-MEL = tested on: LB2518-MEL
LOXIMVI = tested on: LOXIMVI
MEL-HO = tested on: MEL-HO
MZ2-MEL = tested on: MZ2-MEL
MeWo = tested on: MeWo
RPMI7951 = tested on: RPMI7951
RVH-421 = tested on: RVH-421
SkMel28 = tested on: SkMel28
SkMel2 = tested on: SkMel2
SkMel30 = tested on: SkMel30
SkMel5 = tested on: SkMel5
UACC257 = tested on: UACC257
UACC62 = tested on: UACC62
WM115 = tested on: WM115
WM1716 = tested on: WM1716
WM1745 = tested on: WM1745
WM3526 = tested on: WM3526
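Note: cells treated in 1,536-well plates, then fixed and DAPI-stained, with nuclei counted from automated high-throughput microscope images.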

| Structure (SMILES) | cell count (G361) | cell count (IPC-298) | cell count (IST-MEL1) | cell count (LB2518-MEL) | cell count (LOXIMVI) | cell count (MEL-HO) | cell count (MZ2-MEL) | cell count (MeWo) | cell count (RPMI7951) | cell count (RVH-421) | cell count (SkMel28) | cell count (SkMel2) | cell count (SkMel30) | cell count (SkMel5) | cell count (UACC257) | cell count (UACC62) | cell count (WM115) | cell count (WM1716) | cell count (WM1745) | cell count (WM3526) |
| --- | --- | --- | --- | --- | --- | --- | --- | --- | --- | --- | --- | --- | --- | --- | --- | --- | --- | --- | --- | --- |
| Cn1c(Nc2ccc(C(F)(F)F)cc2)nc2cc(Oc3ccnc(-c4ncc(C(F)(F)F)[nH]4)c3)ccc21 + COc1cc(Nc2ncc(F)c(Nc3ccc4c(n3)NC(=O)C(C)(C)O4)n2)cc(OC)c1OC [Tamatinib] (first compound 0.4 µM, partner dose 2 µM) | 63% | 101% | 62.3% | 81.3% | 10.3% | 85.2% | 92.4% | 68.9% | 17% | 69.3% | 73.7% | 81.1% | 100% | 52.2% | 85.1% | 58.1% | 54.4% | 58.9% | 24.5% | 61% |
| Cn1c(Nc2ccc(C(F)(F)F)cc2)nc2cc(Oc3ccnc(-c4ncc(C(F)(F)F)[nH]4)c3)ccc21 + CC(C)CCN1c2nc(Nc3cc(F)c(O)c(F)c3)ncc2N(C)C(=O)C1C [BID1870] (first compound 0.4 µM, partner dose 1 µM) | 25.4% | 45.7% | 80.1% | 35.7% | 62.9% | 52.4% | 55.9% | 57% | 61.5% | 33.5% | 26.6% | 38.9% | 62% | 32.4% | 70.9% | 64.3% | 35% | 65.9% | 54.8% | 36.8% |
| Clc1ccc(Nc2nnc(Cc3ccncc3)c3ccccc23)cc1 [vatalanib] + Cn1c(Nc2ccc(C(F)(F)F)cc2)nc2cc(Oc3ccnc(-c4ncc(C(F)(F)F)[nH]4)c3)ccc21 [CHIR265] (first compound 10 µM, partner dose 0.4 µM) | 13.6% | 45.4% | 74.9% | 20.8% | 77.7% | 57.6% | 29.4% | 69% | 47.9% | 42.2% | 24.6% | 44.3% | 56% | 22.6% | 51.2% | 50% | 29.8% | 71.2% | 33.6% | 35.4% |
| COCC[n+]1c2c(n(Cc3cnccn3)c1C)C(=O)c1ccccc1C2=O + Oc1cc(-c2nc(-c3ccccc3)[nH]c2-c2ccncc2)ccc1Cl [L779450] (first compound 0.002 µM, partner dose 1 µM) | 56.3% | 48.2% | 53% | 25.5% | 79.2% | 76.1% | 22.2% | 51.9% | 33.6% | 87.2% | 39.5% | 8.94% | 56.9% | 37.8% | 25.4% | 64.2% | 47.6% | 75.4% | 58.5% | 28.7% |
| O=C(CCCCCCC(=O)Nc1ccccc1)NO [vorinostat] + COc1cc2c(Oc3ccc4[nH]c(C)cc4c3F)ncnc2cc1OCCCN1CCCC1 [cediranib] (first compound 0.4 µM, partner dose 2 µM) | 67.7% | 79.2% | 91.6% | 77% | 52.3% | 88% | 95.9% | 75.2% | 67.3% | 78.8% | 70.9% | 69.5% | 90.9% | 64.5% | 61.5% | 70.5% | 78.5% | 84.8% | 71.6% | 77.8% |
| COCC[n+]1c2c(n(Cc3cnccn3)c1C)C(=O)c1ccccc1C2=O + O=C(O)C(=O)Nc1sc2c(c1C(=O)O)CCNC2 [TCS401] (first compound 0.002 µM, partner dose 8.33333 µM) | 83.7% | 48.4% | 57.6% | 38.5% | 83.6% | 93.8% | 31.4% | 59.4% | 33.7% | 101% | 31.9% | 38.3% | 72.2% | 40.1% | 27.1% | 68.2% | 69.4% | 63.9% | 65.6% | 40.2% |
| COCC[n+]1c2c(n(Cc3cnccn3)c1C)C(=O)c1ccccc1C2=O + CCN(CC)CCCCNc1ncc2cc(-c3cc(OC)cc(OC)c3)c(NC(=O)NC(C)(C)C)nc2n1 [PD173074] (first compound 0.002 µM, partner dose 0.5 µM) | 99.2% | 40.6% | 48.7% | 30.5% | 251% | 101% | 32.8% | 47.8% | 39.9% | 104% | 57.9% | 29.8% | 61.8% | 56.4% | 27.9% | 70% | 46.3% | 68.2% | 88.2% | 37.7% |
| C#Cc1cccc(Nc2ncnc3cc(OCCOC)c(OCCOC)cc23)c1 [erlotinib] + Cc1cc(N2CCOCC2)cc2[nH]c(-c3c(NC[C@@H](O)c4cccc(Cl)c4)cc[nH]c3=O)nc12 [BMS536924] (first compound 4 µM, partner dose 1 µM) | 53.4% | 52.4% | 77.9% | 54.2% | 64.7% | 59.3% | 82% | 61.3% | 57.2% | 60.9% | 57.2% | 58.3% | 55.8% | 46.2% | 79.1% | 71.9% | 75.4% | 103% | 27.6% | 52.4% |
| Cn1c(Nc2ccc(C(F)(F)F)cc2)nc2cc(Oc3ccnc(-c4ncc(C(F)(F)F)[nH]4)c3)ccc21 + Nc1cccc2c1CN(C1CCC(=O)NC1=O)C2=O [lenalidomide] (first compound 0.4 µM, partner dose 5 µM) | 35.6% | 53.8% | 89.7% | 37.4% | 96.6% | 73.4% | 78.6% | 78.7% | 70.3% | 47.9% | 40.3% | 51.8% | 77.6% | 41.7% | 85.4% | 49.9% | 43.6% | 71.5% | 52.5% | 58.6% |
| OCc1c[nH]c2ccccc12 [Indole-3-carbinol] + CC1(C)NC(=O)N(c2ccc([N+](=O)[O-])c(C(F)(F)F)c2)C1=O [nilutamide] (first compound 4 µM, partner dose 5 µM) | 97.5% | 106% | 91.9% | 104% | 79.7% | 94.4% | 109% | 100% | 133% | 92.2% | 110% | 100% | 103% | 107% | 114% | 104% | 115% | 102% | 102% | 103% |
| C#Cc1cccc(Nc2ncnc3cc(OCCOC)c(OCCOC)cc23)c1 [erlotinib] + NC(=O)Nc1cc(-c2cccc(F)c2)sc1C(=O)N[C@H]1CCCNC1 [AZD7762] (first compound 4 µM, partner dose 0.1 µM) | 70.8% | 66.2% | 79.6% | 51.2% | 80.8% | 53.2% | 95.8% | 73% | 42.7% | 86.4% | 27.1% | 80% | 76.1% | 68.2% | 121% | 56.1% | 63.7% | 75.5% | 47.6% | 50% |
| COCC[n+]1c2c(n(Cc3cnccn3)c1C)C(=O)c1ccccc1C2=O + C[C@]1(c2nc3c(C(N)=O)cccc3[nH]2)CCCN1 [Veliparib] (first compound 0.002 µM, partner dose 7 µM) | 88.9% | 61% | 40.2% | 33.8% | 41.7% | 91.6% | 24.5% | 70.9% | 45.6% | 76.7% | 47.7% | 36.8% | 78.4% | 59.7% | 25.5% | 50.5% | 50% | 67.9% | 85.2% | 49.1% |
| Cn1c(Nc2ccc(C(F)(F)F)cc2)nc2cc(Oc3ccnc(-c4ncc(C(F)(F)F)[nH]4)c3)ccc21 + Cc1cc([N+](=O)[O-])ccc1NS(=O)(=O)c1cc(Cl)ccc1Cl [FH535] (first compound 0.4 µM, partner dose 5 µM) | 13% | 42% | 50.3% | 33.5% | 126% | 40.5% | 37.3% | 54.9% | 33.7% | 35.3% | 26.8% | 41.5% | 65.2% | 33.2% | 54.2% | 53.9% | 26.4% | 56.8% | 42.9% | 37.9% |
| O=C(CCCCCCC(=O)Nc1ccccc1)NO [vorinostat] + Oc1nc(-c2ccc(C(F)(F)F)cc2)nc2c1CSCC2 [XAV939] (first compound 0.4 µM, partner dose 10 µM) | 78.9% | 82.5% | 99.9% | 72.6% | 96.6% | 101% | 73.2% | 74.3% | 65.3% | 84.8% | 43.5% | 73.1% | 72.7% | 51.4% | 56.8% | 55.6% | 95.4% | 80.6% | 56.6% | 91.9% |
| Cn1c(Nc2ccc(C(F)(F)F)cc2)nc2cc(Oc3ccnc(-c4ncc(C(F)(F)F)[nH]4)c3)ccc21 + COc1cc2c(Oc3ccc4[nH]c(C)cc4c3F)ncnc2cc1OCCCN1CCCC1 [cediranib] (first compound 0.4 µM, partner dose 2 µM) | 27.9% | 48.1% | 79.7% | 33.9% | 33.7% | 69.5% | 67.9% | 70.9% | 38.9% | 58.6% | 48.3% | 40.6% | 54.9% | 34.2% | 77.8% | 46.6% | 37.1% | 66.9% | 50.1% | 43.5% |
| Nc1cccc2c1CN(C1CCC(=O)NC1=O)C2=O (stereo not given) [lenalidomide] + C[C@@H]1CCN(C(=O)CC#N)C[C@@H]1N(C)c1ncnc2[nH]ccc12 [CP690550] (first compound 5 µM, partner dose 5 µM) | 86.8% | 90.5% | 82.6% | 108% | 126% | 97.1% | 117% | 106% | 140% | 89.6% | 102% | 107% | 90.3% | 91.7% | 111% | 100% | 104% | 123% | 78.7% | 138% |
| O=C(CCCCCCC(=O)Nc1ccccc1)NO [vorinostat] + Cn1cc(/C=C2\C(=O)Nc3cccnc32)c2ccccc21 [GW441756] (first compound 0.4 µM, partner dose 2 µM) | 90.9% | 86.5% | 110% | 87.9% | 76.6% | 98.1% | 90.4% | 75.7% | 80% | 103% | 70.1% | 101% | 76.8% | 60.9% | 76.2% | 62.4% | 86.7% | 73.7% | 95.7% | 57.5% |
